These results are taken from the supplement of paper PMC11417369.

The list shows a part of the results.

This experiment has as its system PF3D7_0420300 AP2 domain 1 (GST-tagged). Put plainly: gcPBM binding intensity (ln(normalized median fluorescence intensity)); higher = stronger DNA binding. A digest of the protocol: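 Binding of GST-tagged P. falciparum DNA-binding domains, expressed in E. coli and used at about 25 μg on average, was carried out for 1 h in 1× PBS containing 1% milk, 0.2 mg/ml BSA, 0.5% salmon testes DNA and 0.03% Triton X-100. The target was an Agilent 4 × 180k array of primer-extended double-stranded 36-bp intergenic genomic probes plus negative controls, read with Alexa488 anti-GST antibody at 488 nm. Binding intensity is the highest Masliner-normalised natural-log median intensity across replicate spots of either probe orientation.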
As for “AACAAAGAGAAATAAACACACACAAAATAAAGAAAA [CACACA_site8704]”, the “gcPBM binding intensity (ln)” value stood at 10.1. The figure for “ATTAATTAAAATAGTTGTACAATCAAAAAAACAAAA [XGTACX_site7660]” is 9.47; for “TTTTTGTATGCTTCCCGACTACATTATGTCGTAAAT [GTGCAC_negctrl_site164]” it is 9.34. For the sequence “AGAATATATAAGTATACACACATATATATATATATA [CACACA_site201]”, the “gcPBM binding intensity (ln)” value was determined as 9.33. In the case of “ATATCGAAAATTTGGTGTACATTTTTATTTGTTCAA [XGTACX_site3094]” it was 9.3. In the case of “GATATTACGTGTTTGGTATTTTTTGATGTTAATAGG [CACACA_negctrl_site105]” it was 9.51; in that of “TATAAAATAATTAAATGTACATAATATATAAAATAT [XGTACX_site6777]”, 9.31. As to “TTATAAATATTCACTGTGCACTGATGGAATATAAAT [GTGCAC_site9739]”, the “gcPBM binding intensity (ln)” value amounted to 9.21. In the case of “TTTATTTTTCATTGGGGTACACAAGTTTATTTTTGA [XGTACX_site4262]” it was 9.22. For the sequence “ATATCGTTTTTAAATTGTACATTCACTATAGAATAA [XGTACX_site6442]”, the “gcPBM binding intensity (ln)” value came out at 9.22. In the case of “TTCTTTGTTTTTTTTTTTTTTTTAAAAGATAATATT [XGTACX_negctrl_site381]” it was 9.13.

Consider “ATATATTTATTTTGTGCACACAACGCAAACCTTTTA [CACACA_site3508]”, for which the “gcPBM binding intensity (ln)” value was 9.53. In the case of “ATTTTTTCTTTTCGATGTACCCTTCTTATTCTTTAT [XGTACX_site3782]” it was 9.77; in that of “TATATCGCCTTCAAAAGTACTCATATAAAAAAAAAA [XGTACX_site7123]”, 8.8; in that of “AAAAAAAAAAAAAAATGTACTTTTATTATTAATATA [XGTACX_site6357]”, 8.86. In the case of “AGTTCATATTTAAAAAGTACATATTTAAAAACTTCT [XGTACX_site4882]” it was 8.98; in that of “TTTGAACTTTTATATACACACATTATTATAGTATAG [CACACA_site6851]”, 9.54; in that of “ATGCATATATTTATGTGTACATATATTTGTAGGGGG [XGTACX_site6063]”, 10.7. In the case of “TATTTGTTCTGATCCTTTTATTCAACTTTTTTTTTT [CACACA_negctrl_site978]” it was 9.56; in that of “GGCTAAAAGTTGCACACACACAAAAAAAAAAAAAAA [CACACA_site7531]”, 9.56. Take “ACCTTAATTATAATAACACACGAAAAGTGGACACAT [CACACA_site1750]”: the “gcPBM binding intensity (ln)” value was determined as 9.62. As for “TTTTATTTTTAAAATTGTACATTATTATTGTTATTT [XGTACX_site1439]”, the “gcPBM binding intensity (ln)” value worked out at 9.3.

Turning to “TATTATAGTCCGACTTTTTAATTTCTTTATTGTTTT [CACACA_negctrl_site1381]”, the “gcPBM binding intensity (ln)” value was 9.41.

With “TGAATATTCATATGCACACAAATTAATATACATAAT [CACACA_site442]”, the “gcPBM binding intensity (ln)” value came out at 9.46. The figure for “AAATTTTAATTAGACTGTACACATTTTAGAATAATT [XGTACX_site4819]” is 9.11; for “TTTTATGTTTTAAAATGTACGTGTCAATGAATAAGT [XGTACX_site6239]” it is 9.24. In the case of “TTCGCTGTTTTAATTAGTACTTATATATAATATTAT [XGTACX_site1149]” it was 9.67; in that of “TATTGATATATATATATATATATATGTATATACTTA [GTGCAC_negctrl_site111]”, 9.07; in that of “CTAAACCTTTTGAGCACACATATATATATATATATA [CACACA_site1782]”, 9.19. In the case of TTTTTATTTTCATATGTGCACTTATATATATATATA it was 9.46. With “TTTTTATATAAGAAAAAATTATAACAATTTGTTAAT [XGTACX_negctrl_site422]”, the “gcPBM binding intensity (ln)” value came out at 8.74.

Take “ATGTCACAATTTTTCACACACAAAATTTAAATACAT [CACACA_site5168]”: the “gcPBM binding intensity (ln)” value was 9.62. In the case of “TATTATTATATATATAGTACATAAAATATAAAAAAA [XGTACX_site2060]” it was 9.17. The figure for “TTTTTTTTTTAAATGTGTCCTCATTATAATATATGT [XGTACX_site5331]” is 9.24; for “TTTTTTAAATTATATTATAGCAAATAAATATTAAAA [CACACA_negctrl_site1655]” it is 8.62. The figure for “GCATTATTATATATTTGTACATATTTTTTTTTAAAA [XGTACX_site5436]” is 9.37; for “AATTATATATAAAGAAGTACTATTTCAAGGAGTTTT [XGTACX_site3837]” it is 9.29; for “AATAAAACATCATCATGTACAAAATTCGTCTTTGTA [XGTACX_site4821]” it is 9.21. On to “CAAAATATATATGACACACACAAAAAAAGTATATTA [CACACA_site1589]”, for which the “gcPBM binding intensity (ln)” value amounted to 9.87. The figure for “TCAAATTTTCAACATTGTACATAAATGTATAAATAT [XGTACX_site6042]” is 8.97; for “CAATTTATAAAGAAAACACACATATACATAAATACA [CACACA_site4829]” it is 9.83. In the case of “TATATATATGGACACACACACATATATATATATTTT [CACACA_site5409]”, the “gcPBM binding intensity (ln)” value came to 9.96. In the case of “TATATATAATATAGTGCATGTAAAAAATAAACCATG [TGCATGCA_site932]” it was 9.24. Consider “TATAAATTAAAACATTGTACATTTTTATTATTATGT [XGTACX_site579]”, for which the “gcPBM binding intensity (ln)” value came to 9.16. In the case of “TATCTTACTTTTTGCACACACTAATATTATTGTTTA [CACACA_site4990]” it was 9.9. Turning to “AAAATTAATATCTTGGTGCATTTTTTAATATTATTA [GTGCAC_site9638]”, the “gcPBM binding intensity (ln)” value worked out at 9.28. The figure for “ACAACTATTCATCATAGTACACGCATGATATATATA [XGTACX_site1539]” is 9.3; for “TTCAATAGTAAGTATACACACATATAAATAAATAAA [CACACA_site7295]” it is 9.48; for “AAAAAAAAAATATATTGTACAATATTGTAGCTATAT [XGTACX_site7180]” it is 9.3.

Take “GCAACCTTGTGCAAATGTACAAAAAAAAAAAAAAAA [XGTACX_site679]”: the “gcPBM binding intensity (ln)” value amounted to 8.54.

With TTTTTGTTATTTTTAGTGCAGAAGAATAAATTTTAA, the “gcPBM binding intensity (ln)” value was 8.83. As for “AAAATTTCTTATTTTGTACACACAATAAATATTCAC [CACACA_site8464]”, the “gcPBM binding intensity (ln)” value was found to be 9.4. As to “TTTTTATTGTTGCTATATTTATAACAATTTATCATA [GTGCAC_negctrl_site75]”, the “gcPBM binding intensity (ln)” value turned out to be 9.14.

For the sequence “TTTAGATAATTCATTACACACATGTATATATATATA [CACACA_site3483]”, the “gcPBM binding intensity (ln)” value turned out to be 9.38. For “TAAGGAAGAAGAAAAAGTACTAAAGGTATAAATGCG [XGTACX_site2628]”, the “gcPBM binding intensity (ln)” value was found to be 9.45. On to “AGAACTTAATGCTGCACACAAAAAAAAGGAAAAATA [CACACA_site1353]”, for which the “gcPBM binding intensity (ln)” value is 9.48. In the case of “TTCTTTAAAATGATATACGTTATAAATATATATATA [XGTACX_negctrl_site256]” it was 9.07; in that of “AACTTGTATATATACACACACACACTGTCTTTTTTT [CACACA_site1963]”, 10.2. Regarding AAAAAAAAGTTGTAAGTGCATGTATATAATAATATT, the “gcPBM binding intensity (ln)” value was 9.36. In the case of “TGATCACATAATAAATGTACAAAAAAAAATTAATAA [XGTACX_site5867]” it was 9.06. As for “GCTAGTTCATAAAATTGTACAAAAAAAAAAAAAAAA [XGTACX_site2223]”, the “gcPBM binding intensity (ln)” value came to 8.72. The figure for “AAAAAAAAAAAAAAAAGTACATGCCATATATTTTCA [XGTACX_site4580]” is 9.11; for “TTTTTTATCTAATATTTTATAATTTTCATAAATTTG [GTGCAC_negctrl_site534]” it is 9.03. On to “TAAATAATGTTAAACACACATACCGATATATAATTA [CACACA_site2711]”, for which the “gcPBM binding intensity (ln)” value was 9.45.

“AAATAATCTATACACAACGTATAAGAATAATATATG [TGCATGCA_negctrl_site422]”: the “gcPBM binding intensity (ln)” value was 9.32. For the sequence “AATAGAAACATTTTACATGTATATATAATTTTTTTT [XGTACX_negctrl_site190]”, the “gcPBM binding intensity (ln)” value was determined as 9.12.

For the sequence “TATATATAAGAAAAAAGTACAGATATATATATATTC [XGTACX_site4788]”, the “gcPBM binding intensity (ln)” value was 9.57. The figure for “TATACAGACAGACACACACACATATATATATATATA [CACACA_site1734]” is 9.82; for “TTTTAAGAAAAAAAATGTACACATGAAAATAGTGAA [XGTACX_site5898]” it is 9.11.

For the sequence “AAATTTTCACTTCAAAAACACACGTATTTTTTTCCT [CACACA_site3813]”, the “gcPBM binding intensity (ln)” value was 9.25. The figure for “TGTTATATTATAACTACACACGTATTATGTTATATC [CACACA_site839]” is 9.47; for “AGAATTAAAATAATACGTACACACATGTATAATACA [XGTACX_site1878]” it is 9.71. The figure for “ATTATATCTATAATATGTACATATTATAATATATAT [XGTACX_site3211]” is 9.17. The figure for “AATTGTTAATGGTACGAACACACATATAAAGATGCA [CACACA_site2043]” is 9.49; for “ACCTCTCATATGTTATAAACAAAATGAAAATTTCAT [XGTACX_negctrl_site303]” it is 9.17; for ATTTTATTTTATTAAGTGCAAAAAAAAAAAAAGAAA it is 8.94.

Regarding “TGTACAATATAAGGAGCACACAAAAATGGATAAATA [CACACA_site8216]”, the “gcPBM binding intensity (ln)” value was determined as 9.65. In the case of “ATATGGCATAAAACATGTACATGTTCATAAATATAT [XGTACX_site1924]” it was 9.26; in that of “ATAATAAGAAAAAAAAAAAAAAAAAAAAAAAAAAAA [TGCATGCA_negctrl_site377]”, 8.49; in that of “ATATTGAAATGTTAATAGAAATATATGGTTAAATTG [XGTACX_negctrl_site212]”, 9.25. In the case of “ATGTATATAAATAGGTGTACATATAAGGTGTTAAGC [XGTACX_site5465]” it was 9.88; in that of “TACACAAACGTTATACGTACACAGGTTTTTCTTTTA [XGTACX_site5427]”, 9.37.

Regarding “TCTATTTATATGTATTGTACAATATAGATGTGTATT [XGTACX_site5646]”, the “gcPBM binding intensity (ln)” value stood at 9.35. In the case of “CCTAAATAATATCTATCACACACGCATATATACATA [CACACA_site8838]” it was 9.56; in that of “TTATATTTATATTTATGTACATATTTTGTGTGAAAA [XGTACX_site2367]”, 9.18; in that of “AAATTAAAAATAATTACACACATAGAAAAATTATAT [CACACA_site2275]”, 9.65. The figure for “GTAATACACAGACACACACACATACACATATTTATA [CACACA_site7313]” is 10. As for “AGTGTATATAGAAACATACACACATATTAATTTTAC [CACACA_site3127]”, the “gcPBM binding intensity (ln)” value was 9.42. With “ATATATATGCATTCAAGTACAAAAATATATGTTAAA [XGTACX_site910]”, the “gcPBM binding intensity (ln)” value was determined as 9.22.
